The values below come from PubChem BioAssay AID485344 (National Center for Advancing Translational Sciences (NCATS), 2010).

Each structure is given as a SMILES string. Screen size: about 340,000 compounds; about 6,900 (2%) were called active. Cut-off read from the data, not from the text of the source: active = inhibition above about 30%; inactive = below that, where a call was filed. The entries are a selection whose mix differs from that of the whole data set. The source gives no active or inactive call for entries shown without one.

For orientation: inhibition means the change of the read-out against control, counted positive when it falls.

UniProt P14416, sequence (P14416 whole entry, looked up): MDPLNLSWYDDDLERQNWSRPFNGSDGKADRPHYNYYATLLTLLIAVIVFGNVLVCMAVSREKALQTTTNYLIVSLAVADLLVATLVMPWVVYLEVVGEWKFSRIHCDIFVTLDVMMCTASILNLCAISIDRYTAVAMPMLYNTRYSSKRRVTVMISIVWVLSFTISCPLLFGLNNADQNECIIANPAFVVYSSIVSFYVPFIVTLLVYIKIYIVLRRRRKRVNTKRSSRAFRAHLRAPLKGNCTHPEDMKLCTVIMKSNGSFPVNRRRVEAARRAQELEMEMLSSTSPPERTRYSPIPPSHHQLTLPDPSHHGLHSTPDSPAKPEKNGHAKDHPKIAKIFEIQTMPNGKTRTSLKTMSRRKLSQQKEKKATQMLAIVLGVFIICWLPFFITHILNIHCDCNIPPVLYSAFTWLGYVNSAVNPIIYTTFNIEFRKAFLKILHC

The test has as its target D(2) dopamine receptor (Homo sapiens) (UniProt P14416). Nature of the test: HTS Assay for Allosteric Antagonists of the Human D2 Dopamine Receptor: Primary Screen for Antagonists. Note: 0% is about no effect. Particulars: HEK293 TREx D2 cells, calcium flux, dopamine EC80; at 10 µM; stronger effect = higher value. The procedure, abridged:
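Overnight-induced (tetracycline, 30 C) HEK293 T-REx cells carrying force-coupled D2 receive a no-wash calcium dye, then compound, then EC80 dopamine at 180 s; signals are read kinetically throughout.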
Background: Calcium flux is commonly read through the fluorescence of an indicator in the cells.
Regarding `CCN(CC(=O)NC(c1ccccc1)c1ccccc1)Cc1nc2ccccc2c(=O)[nH]1`, the inhibition is active: 32.4%.

Regarding `CCC(C(=O)Nc1ccc(C(=O)OC)cc1)n1nc(-c2ccc(C)cc2)c2c(c1=O)CCCC2` (stereo not given), the inhibition worked out at 6.65%. Consider `O=C(Nc1ccc(Cl)cc1F)c1oc(=O)c2ccccc2c1-c1ccccc1`, for which the inhibition is -2.01%. As for `O=C(NCc1ccc(Cl)cc1)c1ccc(CSCc2cccc(Cl)c2)o1`, the inhibition turned out to be 6.42%. Regarding `Cc1ccccc1OC(=O)c1snnc1C`, the inhibition is 6.26%.

Turning to `COc1cccc(-n2cnnn2)c1`, the inhibition is active: 37.5%. The result for `Cc1ccnc(NS(=O)(=O)c2ccc(NC(=O)C(C)(C)Oc3ccc(Cl)cc3)cc2)n1` reads -2.86%; that for `COc1ccc(OCc2nc3ccccc3n2C(C)c2ccccc2)cc1` (stereo not given), 10.2%. For `CCOc1ccccc1NC(=O)CSc1nc2c(c(=O)[nH]1)CCC2`, the inhibition turned out to be 27.6%. Next, `CCOc1ccc(S(=O)(=O)N2CCN(c3cc(Cl)ccc3Cl)CC2)c2ccccc12`: 1.8%; `O=c1[nH]c2ccc(NCc3ccc(-c4cccc(Cl)c4)o3)cc2[nH]1`: -12.7%. Consider `CCc1ccccc1NC(=O)C(CC)Sc1ncnc2c1sc1ccccc12` (stereo not given), for which the inhibition stood at 20.5%. In the case of `O=C(CCCCCn1c(=O)[nH]c2ccccc2c1=O)NCc1cccc(Cl)c1`, the inhibition stood at 18.1%. In the case of `Cc1ccc(NC(=O)CN2C(=O)C(c3ccc(F)cc3)=NC23CCCCC3)c(C)c1`, the inhibition amounted to 10.1%. Turning to `Cn1c(=O)c2c(SCC(=O)N3CCc4ccccc43)nc(-c3cccc(F)c3)nc2n(C)c1=O`, the inhibition stood at 1.82%. Next, `CCOc1ccccc1CNC(=O)C1CCN(S(=O)(=O)c2cccc3nonc23)CC1`: 3.67%; `O=C(Nc1ccc(Br)cc1)C1CCCN(S(=O)(=O)c2ccc(Br)s2)C1` (stereo not given): -13.6%; `CCn1c(=O)c2sccc2n2c(CCCC(=O)N3CCN(c4ccc(OC)cc4)CC3)nnc12`: -12.8%. The result for `COc1ccc(N2CCN(C(=O)c3c(C)oc4ncnc(N5CCCCC5)c34)CC2)cc1` reads -0.481%. As to `CCc1cccc(NC(=O)c2nnn(Cc3ccc(SC)cc3)c2N)c1`, the inhibition was determined as 6.23%. Turning to `Cc1cccc(N2CCN(C(=O)C3CCCN(S(=O)(=O)c4cccc5nsnc45)C3)CC2)c1C` (stereo not given), the inhibition was found to be 15.9%. Regarding `O=C1CC(c2ccccc2)Cc2[nH]c(=O)c(C(=O)Nc3ccc(OC(F)(F)F)cc3)cc21` (stereo not given), the inhibition was -4.92%. Next, `Cc1ccc(Nc2ncnc3c2cnn3-c2ccccc2)c(C)c1`: 4.29%. Regarding `Cc1cccc(-c2noc(CCCC(=O)NCc3ccco3)n2)c1`, the inhibition is -1.61%.

`COCCn1c(CCC(=O)Nc2cc(C)ccc2C)nc2cccnc21`: the inhibition is -3.95%.

As to `CCN(c1ccccc1)S(=O)(=O)c1cc(-c2onc(C)c2C)ccc1OC`, the inhibition was -19.9%. For `Cc1ccc(C)c(Cn2c(C(C)NC(=O)c3ccc(F)cc3)nc3ccccc32)c1` (stereo not given), the inhibition amounted to 2.88%. On to `Cc1c2cnn(CC(=O)N3CCN(c4ccccc4)CC3)c(=O)c2c(C)n1Cc1ccc(F)cc1`, for which the inhibition is -1.53%. Turning to `CCOc1ccccc1NC(=O)CCS(=O)(=O)c1cccc2nsnc12`, the inhibition is -9.13%. On to `CCNc1nc(NCC)nc(N/N=C/c2ccc(O)c(O)c2)n1`, for which the inhibition is active: 43.6%. The result for `COc1cccc(NC(=O)CCS(=O)(=O)c2ccc3c(c2)oc(=O)n3C)c1` reads 0.122%; that for `COc1ccc(NC(=O)Cn2c(=O)n(CCCC(=O)NCc3ccccc3OC)c(=O)c3ccccc32)cc1Cl`, -8.72%. For the molecule `Cn1c(NCCCCO)nc2c1c(=O)n(Cc1ccc(Cl)cc1)c(=O)n2C`, the inhibition came out at 5.75%. With `O=C(Cn1cc(S(=O)(=O)Cc2ccccc2Cl)c2ccccc21)NCc1ccccc1Cl`, the inhibition was -12.2%. The result for `OC1(c2ccccc2)CCN(Cc2ccccc2)C2CCCCC21` (stereo not given) reads active: 38.1%; that for `CCc1nn(CC(=O)NC(C)CCc2ccccc2)c(=O)c2cc3cc(F)ccc3n12` (stereo not given), -0.489%. As to `CCc1nnc(NC(=O)c2nc(S(=O)(=O)Cc3cccc(C)c3)ncc2Cl)s1`, the inhibition is -12.3%.

Take `NC(=O)CSc1oc(-c2ccco2)nc1S(=O)(=O)c1ccc(Br)cc1`: the inhibition amounted to 5.86%. Next, `CCCCn1cc(S(=O)(=O)c2ccc(C)c(C)c2)c(=O)c2cc(F)c(N3CCN(C)CC3)cc21`: 2.41%; `O=C(CN1C(=O)CCSc2ccc(S(=O)(=O)N3CCCC3)cc21)Nc1ccccc1`: -22.2%; `CCn1cc(C(=O)NCCCOC(C)C)c(=O)c2cc(S(=O)(=O)N3CCc4ccccc4C3)ccc21`: 6.55%.

On to `CCC(Oc1ccccc1)C(=O)Nc1ccc(O)c(-c2nc3cc(C)ccc3o2)c1` (stereo not given), for which the inhibition is -12.3%. For the molecule `CCC(C(=O)Nc1ccccc1C(=O)OC)n1c(C)c2cnn(-c3ccccc3)c(=O)c2c1C` (stereo not given), the inhibition stood at 3.8%. The result for `COc1ccc(N=C(N)SCc2ccccn2)cc1` reads active: 44.6%. The result for `CC(=O)c1ccc(N2CCN(S(=O)(=O)c3c(C)nc4sc(C)cn4c3=O)CC2)cc1` reads 11.2%; that for `Cc1cccc(OCc2cc(=O)n3c(-c4ccccc4)csc3n2)c1C`, 1.46%; that for `CCCn1c(SCc2nc(-c3ccccc3C)no2)nnc1-c1ccc(Cl)cc1`, 12.1%.

In the case of `CCOC(=O)c1[nH]c(C)c(CCC(=O)Nc2c(C)cc(C)cc2C)c1C`, the inhibition stood at 9.42%. With `Cc1cccc(N2CCN(C(=O)C3CCC(CNS(=O)(=O)c4ccc(Br)s4)CC3)CC2)c1C` (stereo not given), the inhibition was determined as 3.37%. As to `CCc1nn(CC(=O)N2CCN(c3cccc(C)c3C)CC2)c(=O)c2cc3occc3n12`, the inhibition was -7.69%. The result for `COc1ccc(N2C(=O)CSC23C(=O)N(CC(=O)NC2CCCCC2)c2ccccc23)cc1` (stereo not given) reads 4.9%; that for `COc1ccc(Cn2c(C(=O)O)c(CNCc3cccc(OC)c3)c3ccc(C)cc32)cc1`, 2.17%; that for `O=C1c2oc3ccccc3c(=O)c2C(c2ccc(Br)cc2)N1c1ccccn1` (stereo not given), -12.2%. Next, `CCCCN(CC)CCNC(=O)Cn1cnc2sc(C)c(S(=O)(=O)N3CCC(C)CC3)c2c1=O`: -1.87%; `Cc1ccc(S(=O)(=O)N2CCN(C(=O)COC(=O)CNC(=O)c3ccccc3)CC2)c(C)c1`: active: 32.7%; `CCOc1ccc(NC(=O)CC2C(=O)N(c3ccccc3)C(=O)N2CCc2ccc(OC)cc2)cc1` (stereo not given): 8.82%. For `COC(=O)c1cnn(-c2ccc(C(=O)Nc3cccc(C(C)=O)c3)cc2)c1N`, the inhibition was 21.2%. On to `Cn1c(=O)oc2cc(S(=O)(=O)N3CCC(C(=O)NCc4ccccc4Cl)CC3)ccc21`, for which the inhibition was -18.5%.

In the case of `Cc1ccc(NC(=O)Cn2nc(C)c3nn(-c4ccc(Cl)cc4)c(C)c3c2=O)cc1C`, the inhibition turned out to be 3.86%.

With `O=C1CN(C(=O)Cc2ccc(F)cc2)C(c2ccccc2)c2cc(Br)ccc2N1` (stereo not given), the inhibition is 2.75%.

For the molecule `Cc1ccc2c(=O)c(C(=O)c3ccccc3)cn(CC(=O)Nc3ccc4c(c3)OCCO4)c2n1`, the inhibition was -13%. `CC(C)(C)c1ccc(C2Sc3ccccc3NC3=C2C(=O)c2ccccc23)cc1` (stereo not given): the inhibition is 7.92%. With `CCOc1ccccc1NC(=O)Cn1c(=O)n(CCC(C)C)c(=O)c2cccnc21`, the inhibition was -23.3%. Regarding `Cc1nc2ccccc2n1CCc1nc2c3ccccc3nc(SCc3cccc(F)c3)n2n1`, the inhibition is 10.7%. Regarding `Cc1cc(C)cc(OCCn2c(C3CC(=O)N(c4ccccc4Cl)C3)nc3ccccc32)c1` (stereo not given), the inhibition is -7.23%. As for `O=C(NNC(=S)Nc1ccccc1Cl)c1ccccc1Br`, the inhibition is active: 53.4%. In the case of `CC1=C(C(=O)Nc2ccccc2)C(c2ccccc2C)n2ncc(C(=O)Nc3ccccc3)c2N1` (stereo not given), the inhibition was 9.83%. Regarding `CCCNC(=O)c1cc2nc(-c3ccc(Br)cc3)cc(C(F)(F)F)n2n1`, the inhibition is -3.41%. In the case of `CCOc1cccc2cc(-c3nc4sc5c(c4c(=O)[nH]3)CCC(C(C)(C)C)C5)c(=O)oc12` (stereo not given), the inhibition worked out at 9.37%.

Turning to `CCOc1ccc(-n2c(SCc3nc(-c4ccc(OC)cc4)no3)nnc2-c2ccncc2)cc1`, the inhibition is 0.582%. As to `COc1ccc(Br)cc1CNC(=O)c1cc(=O)[nH]c2ccc(S(=O)(=O)N3CCCC3)cc12`, the inhibition worked out at 10.6%. Next, `COc1ccc(Br)cc1CNC(=O)c1cc2ccccn2n1`: -0.181%. The result for `O=c1[nH]c(CN2CCN(Cc3ccccc3)CC2)nc2scc(-c3ccccc3)c12` reads active: 68.8%; that for `CCc1nn(C(C)C(=O)NCCN2CCN(c3cccc(C)c3C)CC2)c(=O)c2cc3occc3n12` (stereo not given), active: 51.5%.

As to `CCOC(=O)c1cc(S(=O)(=O)Nc2ccc(Br)c(C)c2)[nH]n1`, the inhibition was -1.32%. As for `COc1cc(C2c3c(oc4cc(C)c(C)cc4c3=O)C(=O)N2CCCN2CCOCC2)ccc1O` (stereo not given), the inhibition was -9.07%. Turning to `Cc1ccc2c(c1)c1c(c(=O)n(-c3cccc(Cl)c3)c(=O)n1CC(=O)N1CCCC1)n2C`, the inhibition is -13.7%. Regarding `Cc1c(C(=O)N2CCC(c3nc4ccccc4s3)CC2)oc2cc(Br)ccc12`, the inhibition is -3.49%. Take `COc1ccc(C)cc1NC(=O)CN1C(=O)COc2ccc(S(=O)(=O)N3CCC(C)CC3)cc21`: the inhibition is -2.81%. Turning to `Cc1c(Cl)cccc1NC(=O)C(C)n1c(=O)cc(C)c2c(C)nn(-c3ccccc3)c21` (stereo not given), the inhibition was -18.5%.

As for `CCOc1ccc(-n2c(=O)c3c(C)c(C)sc3n(Cc3ccccc3C)c2=O)cc1`, the inhibition is -21.6%. Turning to `COc1ccc2c(c1)CCc1c(C(=O)Nc3ccc(C#N)cc3)noc1-2`, the inhibition was -7.81%. Take `COc1ccc(-n2c(SCc3ccccc3)nc3c([nH]c4ccccc43)c2=O)cc1`: the inhibition is -3.84%. As for `COc1cccc(CNC(=O)Cn2nc(N3CCN(c4ccccc4OC)CC3)ccc2=O)c1`, the inhibition was determined as 4.32%.

As for `Cc1ccc(OCCOCCn2c(-c3ccc(Cl)cc3)nc3ccccc3c2=O)cc1`, the inhibition came to 10.4%. With `COc1cccc(CNC(=O)CCc2c(C)c3ccc(O)c(C)c3oc2=O)c1`, the inhibition came to 10.3%. Turning to `COc1ccc(F)cc1C(=O)C1CCCN(Cc2c[nH]c3ccccc23)C1` (stereo not given), the inhibition was active: 67.1%. With `CCCCN(CC)CCCNC(=O)c1ccc2c(c1)NC(=O)CN2C`, the inhibition was -28.2%.

As for `Cc1cc(C)cc(C(=O)N2CC(=O)Nc3ccc(Br)cc3C2c2ccccc2)c1` (stereo not given), the inhibition was -24.7%.

For the molecule `CCCCOc1ccc(C2C(=O)N(C3CCCCC3)CC(=O)N2CCCC)cc1` (stereo not given), the inhibition is -4.89%. The result for `Cc1ccc(NC(=O)Cn2c(-c3nonc3N)nc3ccccc32)c(Br)c1` reads -21.1%; that for `CSc1cccc(NC(=O)C2CCCN(S(=O)(=O)c3cnc[nH]3)C2)c1` (stereo not given), active: 30.6%; that for `CCc1ccc2oc(C(=O)NCc3ccccc3)cc(=O)c2c1`, -14.1%. Regarding `CN1C(=O)C2(c3ccccc31)N(c1ccc(Br)cc1)C(=O)CS2(=O)=O` (stereo not given), the inhibition was -1.1%. For the molecule `COc1ccc(C(=O)NC(=S)Nc2ccccc2N2CCOCC2)cc1[N+](=O)[O-]`, the inhibition was active: 39.1%.
